In PubChem BioAssay AID894 (National Center for Advancing Translational Sciences (NCATS), 2007):
In all, about 150,000 compounds went through this assay and about 6,500 (4.3%) were called active. The inconclusive results got no clear call from the source; some entries with a clear call stand among them for comparison. Calls come from the whole dose curve; as a rule, active = well fitted inhibition curve with a large enough effect (not every such curve was filed as active); inconclusive = small, poorly fitted or top-dose-only effect, or another doubt; inactive = no such curve, though single readings can be large or run the other way. No potency is given beside an inconclusive call; the fits are too rough.

Target: 15-hydroxyprostaglandin dehydrogenase [NAD(+)] (Homo sapiens) (UniProt P15428)
Assay: qHTS Assay for Inhibitors of HPGD (15-Hydroxyprostaglandin Dehydrogenase)
Settings: purified HPGD, NADH fluorescence kinetic, PGE2 substrate; activity change, negative = inhibition: hits give low values
How it was run: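 20 nM HPGD preincubated 15 min at room temperature with compound in 50 mM Tris-HCl pH 8, 0.01% Tween 20. Started with 1 mM NAD+ and 30 uM prostaglandin E2; NADH fluorescence (360/450 nm) read 5 times over 30-s intervals, last minus first.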
% is set by controls: 0 for no effect and ±100 for the full control effect; potency is the fitted concentration of half-maximal effect; tags give direction and shape of the fitted curve.

Chain of UniProt P15428 (P15428 whole entry, looked up): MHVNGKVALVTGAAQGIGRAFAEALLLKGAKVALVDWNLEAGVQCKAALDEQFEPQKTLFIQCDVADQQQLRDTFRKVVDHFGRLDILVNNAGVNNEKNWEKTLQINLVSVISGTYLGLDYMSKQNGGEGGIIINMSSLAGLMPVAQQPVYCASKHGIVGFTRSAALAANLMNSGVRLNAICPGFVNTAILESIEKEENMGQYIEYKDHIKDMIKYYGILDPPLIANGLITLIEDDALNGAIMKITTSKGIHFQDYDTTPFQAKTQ

Row | SMILES | Potency | activity change, negative = inhibition
1 | COc1ccccc1-c1nn2c(C(F)(F)F)nnc2s1 | inconclusive [inhibitor, partial curve] | –
2 | Cn1nc(C(F)(F)F)c(/C=N/OC(=O)c2ccccc2Cl)c1SCc1ccc(Cl)cc1 | – | inactive: -8.26%
3 | Cc1snc(SCC(=O)c2ccc(Cl)cc2)c1C#N | inconclusive [inhibitor, single point] | –
4 | CCC1=C2CC[C@H]3C(=O)NC(=O)[C@H]3[C@H]2[C@@]2(C)C(=NCC3CC3)OC(=O)N2C1=O | – | inactive: -9.91%
5 | CN(C)c1ccc(/C=N/NC(=O)c2ccccc2Cl)cc1 | – | inactive: -5.81%
6 | O=C(c1cccs1)N1N=C(c2ccccc2)CC1c1ccccc1 (stereo unspecified) | inconclusive [inhibitor, single point] | –
7 | O=C(NNC(=S)Nc1ccc(Cl)cc1Cl)c1ccc(N2CCOCC2)c([N+](=O)[O-])c1 | inconclusive [inhibitor, partial curve] | –
8 | O=C(CSc1cn(CCNC(=O)c2ccc3ccccc3c2)c2ccccc12)NCc1ccco1 | – | inactive: -27.4%
9 | Cc1ccccc1C(=O)N1CCc2cc(-c3nc(NC(=O)Cc4ccc5c(c4)OCO5)sc3C)ccc21 | inconclusive [inhibitor, partial curve] | –
10 | CCOC(=O)C1CCN(S(=O)(=O)c2ccc(-c3nc4ccccc4s3)s2)CC1 | inconclusive [inhibitor, partial curve] | –
11 | CCOC(=O)COc1ccc(Br)cc1/C=C\c1[nH]c(=O)[nH]c(=O)c1[N+](=O)[O-] | active: 15.8 µM | –
12 | Cc1cc(C)c(C#N)c(SCC(=O)NC2CC2)n1 | – | inactive: -28.8%
13 | Cc1nnc(NC(=O)C2CCCO2)s1 (stereo unspecified) | active: 12.6 µM | –
14 | c1ccc2sc(-c3ccc4c(c3)OCO4)nc2c1 | inconclusive [inhibitor, partial curve] | –
15 | Cc1cc(N2C(=O)C(O)=C(C(=O)c3ccc(C)o3)C2c2cccs2)no1 (stereo unspecified) | active: 28.2 µM | –
16 | CC12CCC(C(=O)N(CSC(=S)N/N=C\c3ccccc3Cl)C1=O)C2(C)C (stereo unspecified) | inconclusive [inhibitor, single point] | –
17 | CCN(CC)CCCNC(=O)c1cc2c(-c3ccc(Cl)cc3)nn(C)c2s1 | inconclusive [inhibitor, partial curve] | –
18 | CCOc1ccc(C(=O)c2cccs2)cc1 | active: 15.8 µM | –
19 | Cc1ccc(S(=O)(=O)c2cc3c(=O)n4ccccc4nc3n(Cc3ccco3)c2=N)cc1 | inconclusive [inhibitor, partial curve] | –
20 | Cc1csc2ncc(C(=O)NC(C)c3ccccc3)c(=O)n12 (stereo unspecified) | inconclusive [inhibitor, partial curve] | –
21 | COc1ccc(-n2c(SCC(=O)Nc3nccs3)nnc2-c2ccccc2)cc1 | – | inactive: -16.7%
22 | COc1ccccc1C1NC=C([N+](=O)[O-])C=C1[N+](=O)[O-] (stereo unspecified) | active: 3.55 µM | –
23 | CCCC(=O)Nc1ccc(-c2nc3cc(C)c(C)cc3o2)c(O)c1 | inconclusive [inhibitor, partial curve] | –
24 | CCOc1ccc(NC(=S)Nc2ccc(OC(F)(F)F)cc2)cc1 | – | inactive: -9.35%

Row | SMILES | Potency | activity change, negative = inhibition
25 | O=C(Cc1cccs1)NCc1ccncc1 | – | inactive: -13.7%
26 | COC(=O)c1[nH]nc2c1C(=O)N(Cc1ccccc1)C2=O | active: 10 µM | –
27 | Cc1ccc2nc(C(F)OC(F)(F)F)[nH]c2c1 (stereo unspecified) | inconclusive [inhibitor, partial curve] | –
28 | Cc1ccc(C)c(S(=O)(=O)NC(C)C(=O)Nc2ccc(-c3nc4ccccc4s3)cc2)c1 (stereo unspecified) | inconclusive [inhibitor, partial curve] | –
29 | COc1ccc(Cn2c(-c3ccc(OC)cc3)nc3c(c(=O)c4ccccc4n3C)c2=O)cc1 | – | inactive: -3.29%
30 | Cc1cccc(/C(N)=N/OC(=O)c2ccco2)c1 | inconclusive [inhibitor, partial curve] | –
31 | Nc1nc(Br)c2ccccc2c1-c1ccc(F)cc1 | inconclusive [inhibitor, single point] | –
32 | COc1ccccc1C(=O)NCc1ccccc1 | active: 11.2 µM | –
33 | Cc1cccc(NC(=O)c2ccc(N3CCCCC3)c([N+](=O)[O-])c2)n1 | inconclusive [inhibitor, single point] | –
34 | COCCn1c(=O)c(-c2ccc(Cl)cc2)nc2cnc(Oc3ccccc3)nc21 | inconclusive [inhibitor, partial curve] | –
35 | Clc1ccc(C2Nc3ccccc3-n3cccc32)cc1 (stereo unspecified) | inconclusive [inhibitor, partial curve] | –
36 | COCCN(CCOC)Cc1c(O)ccc2c3c(c(=O)oc12)CCC3 | inconclusive [inhibitor, partial curve] | –
37 | Cc1c(NC(=O)COC(=O)c2cc(-c3ccc(-c4ccccc4)cc3)nc3ccccc23)c(=O)n(-c2ccccc2)n1C | inconclusive [inhibitor, partial curve] | –
38 | Cc1cccc(C2=NN(c3ccccc3)[C@@H](C(=O)N3CCOC3=O)[C@@H]2c2ccccc2)c1 | inconclusive [inhibitor, partial curve] | –
39 | S=c1[nH]nc(-c2cc3c(s2)-c2ccccc2CC3)o1 | inconclusive [inhibitor, partial curve] | –
40 | O=C(/C=C/c1ccccc1Cl)NC(=S)Nc1ccccc1C(=O)NC1CCCCC1 | active: 28.2 µM | –
41 | COC(=O)C1(Cc2ccccc2)C=C2C(=C(c3ccccc3)C(=O)C2C)CN1 (stereo unspecified) | active: 10 µM | –
42 | NC(=O)c1ccsc1NC(=O)C1CCCN1S(=O)(=O)c1ccc(Cl)cc1 (stereo unspecified) | inconclusive [inhibitor, partial curve, poor fit] | –
43 | N#Cc1cn(-c2ccccc2)nc1-c1cc2ccccc2oc1=O | inconclusive [inhibitor, partial curve] | –
44 | O=c1onc(-c2ccc(Cl)cc2)n1Cc1ccc(F)cc1 | – | inactive: -1.85%
45 | CCOC(=O)c1ccccc1NC1c2ccccc2C(=O)N1c1ccc(C)cn1 (stereo unspecified) | inconclusive [inhibitor, single point] | –
46 | O=C1c2cnc3nc(SCc4ccccc4)nn3c2CC2c3ccccc3CCN12 (stereo unspecified) | inconclusive [inhibitor, partial curve] | –
47 | COC(=O)C1=C(C)Nc2c(c(=O)n(C)c(=O)n2C)C1c1cccs1 (stereo unspecified) | inconclusive [inhibitor, single point] | –
48 | CCn1c(SCC(=O)Nc2sc3c(c2C(N)=O)CCC(C)C3)nnc1-c1ccco1 (stereo unspecified) | inconclusive [inhibitor, partial curve] | –

Row | SMILES | Potency | activity change, negative = inhibition
49 | Cc1nc(N2CCN(c3ccccc3)CC2)nc2c1C(=O)CCC2 | inconclusive [inhibitor, partial curve] | –
50 | S=C(NCCc1ccccc1)NCc1ccccc1Cl | – | inactive: -18.9%
51 | COc1ccc(C(c2c(O)ccc3ccccc23)N2CCOCC2)c(OC)c1 (stereo unspecified) | – | inactive: -19.6%
52 | Cn1c(=O)c(-c2ccc(F)cc2)nc2cnc(Oc3ccccc3)nc21 | inconclusive [inhibitor, single point] | –
53 | CCOC(=O)c1sc(N/N=C/c2ccccc2)nc1C | active: 14.1 µM | –
54 | COC(=O)c1ccc(NC(=O)c2sc3nc(-c4ccccc4)cn3c2C)cc1 | inconclusive [inhibitor, single point] | –
55 | COc1ccccc1NC(=O)CSc1ccc2nnc(-c3cccnc3)n2n1 | – | inactive: -11.4%
56 | CCCC(=O)NCc1ccc2c(c1)cc(C)n2C | active: 7.94 µM | –
57 | N#CC1=C(N)NC(SCC(=O)c2ccc(Cl)cc2)=C(C#N)C12CCCC2 | inconclusive [inhibitor, single point] | –
58 | CCOC(=O)C1CCN(C(=S)Nc2ccc(S(N)(=O)=O)cc2)CC1 | active: 28.2 µM | –
59 | CCOC(=O)c1c(NC(=O)CN(CC)CC)sc2c1CCN(C(=O)OCC)C2 | inconclusive [inhibitor, partial curve] | –
60 | C=CCOC(=O)C1=C(C)NC(SCC(N)=O)=C(C#N)C1c1cccs1 (stereo unspecified) | inconclusive [inhibitor, partial curve] | –
61 | c1ccc2c(c1)ccc1nnc(SCc3ccc4c(c3)OCO4)n12 | inconclusive [inhibitor, partial curve] | –
62 | COc1ccc(C2=NN(C(=O)c3cccs3)C(c3ccc(OC)cc3)C2)cc1 (stereo unspecified) | inconclusive [inhibitor, single point] | –
63 | N#Cc1c(-c2ccccc2)nc(SCC(=O)Nc2ccccc2F)[nH]c1=O | active: 15.8 µM | –
64 | O=C(N/N=C/c1ccc(-c2ccccc2[N+](=O)[O-])o1)c1cncc(Br)c1 | – | inactive: -16.2%
65 | Cn1c(-c2sc3cc(C(F)(F)F)cnc3c2-c2ccccc2)n[nH]c1=S | active: 31.6 µM | –
66 | O=[N+]([O-])c1cc(C(F)(F)F)ccc1NCCNC(=S)Nc1ccc(Cl)cc1 | – | inactive: -12.6%
67 | C=CCn1c(SCCCc2ccccc2)nc2c1c(=O)[nH]c(=O)n2C | inconclusive [inhibitor, partial curve] | –
68 | CCN(CC)S(=O)(=O)c1ccc(OC)c(NC(=O)COc2ccc3c(C)cc(=O)oc3c2)c1 | inconclusive [inhibitor, partial curve] | –
69 | COc1c(O)c(O)cc2c1oc1c3ccccc3oc(=O)c21 | active: 12.6 µM | –
70 | Clc1ccc2nc(SCc3nnc(-c4ccccc4)o3)[nH]c2c1 | active: 17.8 µM | –
71 | COC(=O)c1ccc(Sc2ccccc2NS(=O)(=O)c2ccc(OC)cc2)nc1 | – | inactive: 0.292%
